According to the supplement of paper PMC10338343:
± gives the standard deviation. Only a part is listed here, and it is no random draw.

Test system: MIWI (PIWIL1) piRISC loaded with L1MC piRNA (30 nt)
Experiment: pre-steady-state target cleavage rate (min^-1); MIWI and MILI are mouse PIWI proteins and EfPiwi is from a freshwater sponge; tags in brackets are library labels; higher = faster piRNA-guided slicing of the target
Conditions: guide: L1MC piRNA 5'p-UAACUAAAUACUAUGCAAGCUGUAGGUCCU; auxiliary factor: 500 nM mouse GTSF1
Summary of the method: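 In this Cleave-'n-Seq assay, uncleaved targets were sequenced and normalised to depth and to weakly complementary targets. They came from a transcribed, DNA-blocked target RNA library […] mixed with 1 nM active affinity-purified piRISC carrying one synthetic guide, with or without 500 nM GTSF1 partner protein, in HEPES–potassium acetate buffer at 33 °C for 0–8 or 0–960 min. After three trials were pooled and k3 was capped at 0.0001 min^-1, the pre-steady-state cleavage rate was obtained from a burst-and-steady-state fit.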
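Also: 1 nM active piRISC with 0.1 nM target library at 33 °C single turnover.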

Sequence	pre-steady-state target cleavage rate
UCCACCUACAGCUUGCAUAAGUAUUUAGUUA	0.012 ± 0.0067
UCCUGGAUCAGCUUGCUUAGUAUUUUCAAA	0.024 ± 0.0088
UCCUGGAUGAGCUUGCAAUCUAUUUAGUUA	0.00395 ± 0.0025
AGGACCUACAGCUUGCAGUAGUAUUUAGUUA	0.349 ± 0.14
UCCUGGAUCAGCUUCCAUAGUUUUUAGUUA	0.00762 ± 0.0043
UCCUGGAACAGCUUGCAUAGUUUUUACAAA	0.0689 ± 0.022
AGGACCUACAGCUACCAUAGUAUUUACAAA	0.0118 ± 0.0057
UCCUCCUACAGCUUGCAUAGUAUUUUCAAA [g6:g26:cont:t1A]	0.483 ± 0.062
UCGACCUAGUCCUUGCAUAGUAUUUUCAAA	0.146 ± 0.03
UCCUGCUACUCGUUGCAUAGUAUUUACAAA	0.0303 ± 0.0091
UGGUGCUACAGCUUGCAUAGUAUUUACAAA	0.144 ± 0.028
AGGACCUACAGCUUGGUUAGUAUUUAGAAA	0.301 ± 0.052
UCCACCUACAGCUUGCAUAGUUUUUUCAAA	0.144 ± 0.028
UCCUGGAACAGCUUGCAUAGUAUAUAGAAA	0.203 ± 0.035
UCCUGCUACAGCUUCCAUUGUAUUUAGUUA	0.202 ± 0.024
UCCACCUACAGCUUGCAAUGUAUUUACAAA	0.0629 ± 0.015
UCCUGCUACAGCUUGCAUCAGUAUUUAGUUA	0.0153 ± 0.0073
UCGACCAUGAGCUUGCAUAGUAUUUUCAAA	0.0965 ± 0.017

Sequence	pre-steady-state target cleavage rate
UCCUGCUACAGCUUGCAUAGAAUUUUCAAA	0.0984 ± 0.02
UCCUGCUACAGCUUGCAUAGUAAAUAGUAA	0.163 ± 0.038
UGGACCUACAGCUUGCAUUGUAUUUUCAAA	0.0734 ± 0.016
UCCUGGUACAGCUUGCAUAGUAUUAGUUA	0.087 ± 0.019
UGGACCUACAGCUUGCUAAGUAUUUAGAAA	0.0267 ± 0.0083
UCCUGCUACAGCUUGCAUAGUUAUUAGUAA	0.0808 ± 0.02
UGGACCUACAGCUACCAUAGUAUUUACAAA	0.00304 ± 0.0028
UCGACCUACAGGAUGCAUAGUAUUUAGAAA	0.43 ± 0.058
UCCUGGAACAGCUUCGAUAGUAUUUAGUAA	0.0767 ± 0.014
UGGACCUACAGCUUGCAUAGAUAUUAGUUA	0.0135 ± 0.0047
UCGACCUACAGCUAGCAUAGUAUUUACAAA	0.377 ± 0.041
UCCUGGAUGUCGAGGCAUAGUAUUUAGUUA	0.0222 ± 0.0065
UCCACCUACAGCUUGCUAAGUAUUUACAAA	0.00889 ± 0.0047
UCCUGGAUCACCUUGCAUAGUAUUUUCAAA	0.0512 ± 0.019
UCCUGGAUGAGCUUGCCAUAGUAUUUAGUUA	0.019 ± 0.0052
UCGACCUACAGCUUGGUUAGUAUUUAGAAA	0.224 ± 0.04
UCCUGCUACAGCUUGCAUAGUUUUAGUUA	0.00729 ± 0.0045

Same assay, conditions: guide: L1MC piRNA 5'p-UAACUAAAUACUAUGCAAGCUGUAGGUCCU; auxiliary factor: none (no GTSF1)

Sequence	pre-steady-state target cleavage rate
UCCUGGAUGUCGAUGCAUAGUAUAUACUUA	< 0.0001
UGGACCUACAGCUUUGCAUAGUAUUUAGUUA	0.0449 ± 0.011
UCCUGGAUGUCGAACGUAAGUAUUUACGUUA	< 0.0001
UCCUGGAUGUCGAACCAUACUAUUUAGAUA	< 0.0001
UCCUGGAUGUCGAACCAUAGUAUAUAGUUA	< 0.0001
